Where a chain is given by its changes, count along the chain named. Some of the results follow.
T1: RBFOX1 RRM RbFoxmut (Fox-RRM*) (Homo sapiens, UniProt Q9NWB1 109-208, R118D;E147R;N151S;E152T)
T1 sequence: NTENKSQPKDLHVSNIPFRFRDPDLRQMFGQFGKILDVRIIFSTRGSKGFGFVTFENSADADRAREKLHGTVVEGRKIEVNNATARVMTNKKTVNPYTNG

B1: ACGAUAG (DNA:RNA)
RNA: GGGAGACCGGAAUUCAGAUUGUCCACGAUAGUUAAAUCCCGUCGUAGCCACCA
DNA 1: CAATCTGAATTCCGGTCTCCC
DNA 2: TGGTGGCTACGACGGGATT
B2: GGGCCAG (DNA:RNA)
RNA: B1 RNA with A25G, C26G, A28C, U29C
DNA 1: CAATCTGAATTCCGGTCTCCC
DNA 2: TGGTGGCTACGACGGGATT
B3: AAAUCGA (DNA:RNA)
RNA: B1 RNA with C26A, G27A, A28U, U29C, A30G, G31A
DNA 1: CAATCTGAATTCCGGTCTCCC
DNA 2: TGGTGGCTACGACGGGATT
B4: AAAGGCA (DNA:RNA)
RNA: B1 RNA with C26A, G27A, A28G, U29G, A30C, G31A
DNA 1: CAATCTGAATTCCGGTCTCCC
DNA 2: TGGTGGCTACGACGGGATT
B5: GUACAGC (DNA:RNA)
RNA: GGGAGACCGGAAUUCAGAUUGUCCGUACAGCUUAAAUCCCGUCGUAGCCACCA
DNA 1: CAATCTGAATTCCGGTCTCCC
DNA 2: TGGTGGCTACGACGGGATT
B6: AGAGGUA (DNA:RNA)
RNA: B1 RNA with C26G, G27A, A28G, U29G, A30U, G31A
DNA 1: CAATCTGAATTCCGGTCTCCC
DNA 2: TGGTGGCTACGACGGGATT
B7: GUGUGGC (DNA:RNA)
RNA: B5 RNA with A27G, C28U, A29G
DNA 1: CAATCTGAATTCCGGTCTCCC
DNA 2: TGGTGGCTACGACGGGATT
B8: GGGAUUC (DNA:RNA)
RNA: B1 RNA with A25G, C26G, A30U, G31C
DNA 1: CAATCTGAATTCCGGTCTCCC
DNA 2: TGGTGGCTACGACGGGATT
B9: CACCUUC (DNA:RNA)
RNA: B5 RNA with G25C, U26A, A27C, A29U, G30U
DNA 1: CAATCTGAATTCCGGTCTCCC
DNA 2: TGGTGGCTACGACGGGATT
B10: GCGCGUG (DNA:RNA)
RNA: B1 RNA with A25G, A28C, U29G, A30U
DNA 1: CAATCTGAATTCCGGTCTCCC
DNA 2: TGGTGGCTACGACGGGATT
B11: ACAAGUG (DNA:RNA)
RNA: B1 RNA with G27A, U29G, A30U
DNA 1: CAATCTGAATTCCGGTCTCCC
DNA 2: TGGTGGCTACGACGGGATT
B12: UAGAAUC (DNA:RNA)
RNA: B1 RNA with A25U, C26A, U29A, A30U, G31C
DNA 1: CAATCTGAATTCCGGTCTCCC
DNA 2: TGGTGGCTACGACGGGATT
B13: GUACUAU (DNA:RNA)
RNA: B5 RNA with A29U, G30A, C31U
DNA 1: CAATCTGAATTCCGGTCTCCC
DNA 2: TGGTGGCTACGACGGGATT
B14: AAAGCAC (DNA:RNA)
RNA: B1 RNA with C26A, G27A, A28G, U29C, G31C
DNA 1: CAATCTGAATTCCGGTCTCCC
DNA 2: TGGTGGCTACGACGGGATT
B15: GGCGAAG (DNA:RNA)
RNA: B1 RNA with A25G, C26G, G27C, A28G, U29A
DNA 1: CAATCTGAATTCCGGTCTCCC
DNA 2: TGGTGGCTACGACGGGATT
B16: UACGUCU (DNA:RNA)
RNA: B1 RNA with A25U, C26A, G27C, A28G, A30C, G31U
DNA 1: CAATCTGAATTCCGGTCTCCC
DNA 2: TGGTGGCTACGACGGGATT
B17: CGGUCCA (DNA:RNA)
RNA: B1 RNA with A25C, C26G, A28U, U29C, A30C, G31A
DNA 1: CAATCTGAATTCCGGTCTCCC
DNA 2: TGGTGGCTACGACGGGATT
B18: ACUACGG (DNA:RNA)
RNA: B1 RNA with G27U, U29C, A30G
DNA 1: CAATCTGAATTCCGGTCTCCC
DNA 2: TGGTGGCTACGACGGGATT
B19: CCUGUAA (DNA:RNA)
RNA: B1 RNA with A25C, G27U, A28G, G31A
DNA 1: CAATCTGAATTCCGGTCTCCC
DNA 2: TGGTGGCTACGACGGGATT
B20: UCCUCCG (DNA:RNA)
RNA: B1 RNA with A25U, G27C, A28U, U29C, A30C
DNA 1: CAATCTGAATTCCGGTCTCCC
DNA 2: TGGTGGCTACGACGGGATT
B21: GGUACUG (DNA:RNA)
RNA: B1 RNA with A25G, C26G, G27U, U29C, A30U
DNA 1: CAATCTGAATTCCGGTCTCCC
DNA 2: TGGTGGCTACGACGGGATT
B22: GUUCAGU (DNA:RNA)
RNA: B5 RNA with A27U, C31U
DNA 1: CAATCTGAATTCCGGTCTCCC
DNA 2: TGGTGGCTACGACGGGATT
B23: UGCUAAC (DNA:RNA)
RNA: B5 RNA with G25U, U26G, A27C, C28U, G30A
DNA 1: CAATCTGAATTCCGGTCTCCC
DNA 2: TGGTGGCTACGACGGGATT
B24: AUUCGUU (DNA:RNA)
RNA: B5 RNA with G25A, A27U, A29G, G30U, C31U
DNA 1: CAATCTGAATTCCGGTCTCCC
DNA 2: TGGTGGCTACGACGGGATT
B25: UGGGGUG (DNA:RNA)
RNA: B1 RNA with A25U, C26G, A28G, U29G, A30U
DNA 1: CAATCTGAATTCCGGTCTCCC
DNA 2: TGGTGGCTACGACGGGATT
B26: CCCGGAU (DNA:RNA)
RNA: B1 RNA with A25C, G27C, A28G, U29G, G31U
DNA 1: CAATCTGAATTCCGGTCTCCC
DNA 2: TGGTGGCTACGACGGGATT
B27: CUGCUAU (DNA:RNA)
RNA: B1 RNA with A25C, C26U, A28C, G31U
DNA 1: CAATCTGAATTCCGGTCTCCC
DNA 2: TGGTGGCTACGACGGGATT
B28: GAAAGGG (DNA:RNA)
RNA: B5 RNA with U26A, C28A, A29G, C31G
DNA 1: CAATCTGAATTCCGGTCTCCC
DNA 2: TGGTGGCTACGACGGGATT
B29: AUACGUG (DNA:RNA)
RNA: B5 RNA with G25A, A29G, G30U, C31G
DNA 1: CAATCTGAATTCCGGTCTCCC
DNA 2: TGGTGGCTACGACGGGATT
B30: UGCCAUG (DNA:RNA)
RNA: B5 RNA with G25U, U26G, A27C, G30U, C31G
DNA 1: CAATCTGAATTCCGGTCTCCC
DNA 2: TGGTGGCTACGACGGGATT
B31: GCAUCCU (DNA:RNA)
RNA: B5 RNA with U26C, C28U, A29C, G30C, C31U
DNA 1: CAATCTGAATTCCGGTCTCCC
DNA 2: TGGTGGCTACGACGGGATT

The binders below were run against T1, RBFOX1 RRM RbFoxmut (Fox-RRM*) (assay: EMSA; HiTS-Eq, 1 nM pool, 10 min; buffer printed only for the single-RNA assays: 10 mM Tris pH 7.5, 150 mM NaCl, 3.4 mM EDTA, 0.001% NP-40, 30 C). Settings: tags: His6 N-terminal (pET28a); label: 5' 32P.
In short: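 Relative association constants, normalised to the cognate motif, were derived by comparing read counts of each RNA species with those of the control reaction. The RNA sequenced was the free fraction, separated by 8% native PAGE after a 10 min equilibration in 50 µL of 1 nM 5′-radiolabelled RNA (7 randomized nucleotides) with increasing concentrations of purified wild-type or mutant RbFox RRM.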

Binder	binding signal
B1	0.105 KA relative to UGCAUGU
B2	0.0926 KA relative to UGCAUGU
B3	0.0756 KA relative to UGCAUGU
B4	0.0931 KA relative to UGCAUGU
B5	0.0876 KA relative to UGCAUGU
B6	0.148 KA relative to UGCAUGU
B7	0.132 KA relative to UGCAUGU
B8	0.138 KA relative to UGCAUGU
B9	0.0518 KA relative to UGCAUGU
B10	0.149 KA relative to UGCAUGU
B11	0.127 KA relative to UGCAUGU
B12	0.125 KA relative to UGCAUGU
B13	0.104 KA relative to UGCAUGU
B14	0.0825 KA relative to UGCAUGU
B15	0.0667 KA relative to UGCAUGU
B16	0.0736 KA relative to UGCAUGU

Binder	binding signal
B17	0.0698 KA relative to UGCAUGU
B18	0.0692 KA relative to UGCAUGU
B19	0.126 KA relative to UGCAUGU
B20	0.0609 KA relative to UGCAUGU
B21	0.112 KA relative to UGCAUGU
B22	0.0882 KA relative to UGCAUGU
B23	0.0992 KA relative to UGCAUGU
B24	0.134 KA relative to UGCAUGU
B25	0.38 KA relative to UGCAUGU
B26	0.0433 KA relative to UGCAUGU
B27	0.121 KA relative to UGCAUGU
B28	0.0436 KA relative to UGCAUGU
B29	0.132 KA relative to UGCAUGU
B30	0.509 KA relative to UGCAUGU
B31	0.289 KA relative to UGCAUGU

Source: article PMC9911399, “Two distinct binding modes provide the RNA-binding protein RbFox with extraordinary sequence specificity”
